# Source: PubChem BioAssay (NCATS)
# Inconclusive results, whose numbers are uncertain, are shown with a selection of clear calls. Potencies of inconclusive entries are left out as doubtful fits. Calls of active or inactive are those of the source. The call rests on the fitted dose curve; in most records, active means well fitted cell-killing curve with a large enough effect; inconclusive means small, poorly fitted or top-dose-only effect, or effect the other way; inactive means no such curve, though single readings can be large or run the other way.
# Assay: Viability qHTS for spleen associated tyrosine kinase inhibitor (SYKi) drug resistant MV4-11 cells (AID 1963824); further: nearly all actives have a fitted effect of over 35% in size
# Conditions: SYKi-resistant MV4-11 viability, CellTiter-Glo, 72 h; series mostly up to 45 µM
# How it was run: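 CellTiter-Glo luminescence, read 10 min after reagent addition, reports viability after a 72 hr compound exposure. Cells are an MV4-11 line made resistant to SYK inhibition, seeded at 500 per well onto compound-containing plates.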
# Potency means the concentration at half of the fitted maximal effect; tags describe the fitted curve by direction and shape.
Structure (SMILES),Potency,"viability, % of control"
COC(=O)C1=CO[C@@H](O[C@@H]2O[C@H](COC(=O)/C=C/c3cc(OC)c(O)c(OC)c3)[C@@H](O)[C@H](O)[C@H]2O)[C@@H]2C(CO)=CC[C@H]12,"inconclusive [cytotoxic, partial curve, poor fit]",
C=C1C(=O)O[C@@H]2/C=C(\CO)CC/C=C(\CO)[C@H](OC(C)=O)C(OC(=O)C(C)CC)C12 (some centres undefined),active: 2.24 µM,
COc1c(C(O)CC(C)C)ccc2c1C(=O)OCc1cc(C)cc(O)c1O2 (centres undefined),"inconclusive [cytotoxic, partial curve]",
O=C1[C@H](O[C@@H]2O[C@H](CO)[C@@H](O)[C@H](O)[C@H]2O)Oc2ccccc2N1O,inactive,
OC[C@H]1O[C@@H](Oc2cc(O)cc(-c3cc4ccc(O[C@@H]5O[C@H](CO)[C@@H](O)[C@H](O)[C@H]5O)cc4o3)c2)[C@H](O)[C@@H](O)[C@@H]1O,"inconclusive [cytotoxic, single point]",
CCCC(=O)O[C@]1(C(=O)COC(=O)CC)CC[C@H]2[C@@H]3CCC4=CC(=O)CC[C@]4(C)[C@H]3[C@@H](O)C[C@@]21C,"inconclusive [rising, full curve, poor fit]",
CC(C)=CCC/C(C)=C/CO[C@@H]1O[C@H](CO)[C@@H](O)[C@H](O)[C@H]1O,"inconclusive [cytotoxic, partial curve, poor fit]",
Cc1ccc(S(=O)(=O)NCc2ccc(C(=O)NCCN(Cc3ccccc3)C(C)C)cc2)cc1,active: 14.6 µM,
C/C(=C\CC/C(C)=C/CC[C@]1(C)CCc2cc(O)cc(C)c2O1)CC/C=C(\C)C(=O)O,"inconclusive [cytotoxic, single point]",
CC(=O)O[C@@H]1C[C@@]23C[C@@]24CC[C@H](OC2OC[C@@H](O)[C@H](O)[C@H]2O)C(C)(C)[C@@H]4CC[C@H]3[C@]2(C)CC3OC4(C[C@@H](C)C3[C@@]12C)OCC1(C)OC14 (some centres undefined),"inconclusive [cytotoxic, partial curve, poor fit]",
COc1ccc(Cl)cc1NC(=O)Nc1cc(C)nc2ccccc12,active: 14.6 µM,
Cc1onc(-c2c(Cl)cccc2Cl)c1CC(=O)NCc1ccc(OCC(F)(F)F)nc1,"inconclusive [cytotoxic, partial curve]",
COc1ccc(/C=C/C(=O)N2CCCC2)cc1,"inconclusive [cytotoxic, single point]",
CCC(Nc1ncnc2nc[nH]c12)c1nc2cccc(F)c2c(=O)n1-c1ccccc1 (centres undefined),"inconclusive [cytotoxic, partial curve, poor fit]",
COc1cc(N2CCC(N3CCN(C)CC3)CC2)ccc1Nc1ncc(Cl)c(-c2c[nH]c3ccccc23)n1,active: 0.0116 µM,
C=C(COC(=O)C(O)C(O)CN)C12OC1C1(C)C(=CC2=O)C(O)C(O)CC1C (centres undefined),"inconclusive [cytotoxic, partial curve]",
Cc1c(F)cc(C(=O)NC2CC2)cc1-c1c(F)cn2c(C(C)(C)C)nnc2c1F,"inconclusive [cytotoxic, partial curve]",
COc1c2cc(c(O)c1OC)CCCCC(O)CCc1ccc(O)c-2c1 (centres undefined),active: 14.3 µM,
CC(C)NCC(C(=O)N1CCN(c2ncnc3c2C(C)CC3O)CC1)c1ccc(Cl)cc1 (centres undefined),"inconclusive [cytotoxic, partial curve, poor fit]",
O=C(NC1CCC1)c1ccc(C#Cc2cccc(F)c2)nc1,"inconclusive [cytotoxic, full curve, poor fit]",
C=Cc1cc2oc(-c3ccc(O)c(F)c3)nc2cc1O,"inconclusive [cytotoxic, single point]",
CC1OC(OC2C(O)C(OC3CCC4(C)C(CCC5(C)C4CC=C4C6CC(C)(COC7OC(CO)C(O)C(O)C7O)CC(O)C6(C)CCC45C)C3(C)C)OC(C(=O)O)C2O)C(O)C(O)C1OC1OCC(O)C(O)C1O (centres undefined),,inactive: 85% [at 9.25 µM]
COc1cc(/C=C/c2ccccc2)c(C(=O)O)c(O)c1CC=C(C)C,"inconclusive [cytotoxic, single point]",
COc1cc(CC(COC2OC(CO)C(O)C(O)C2O)c2cc(/C=C/CO)cc(OC)c2O)ccc1O (centres undefined),"inconclusive [cytotoxic, partial curve, poor fit]",
